Experimental data published in PubChem BioAssay AID1346428 (National Center for Advancing Translational Sciences (NCATS), 2018).
Values joined by “and” are separate entries in the source; they are usually repeats but may differ in a detail not shown here. Identical values can stand only once. Hit rate of the full screen: of about 48,000 compounds, about 1,200 (2.5%) were called active. About 2% were inconclusive and are not listed.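 Rule for the calls: active = activation of at least 60% and not above a set upper limit (about 1 call in 100 departs from these limits); inconclusive = activation of 40% to 60%, or above that upper limit; inactive = activation under 40%.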 Some of the results follow.

Target: Probable G-protein coupled receptor 32 (Homo sapiens) (UniProt O75388)
Sequence of UniProt O75388 (O75388 whole entry, looked up): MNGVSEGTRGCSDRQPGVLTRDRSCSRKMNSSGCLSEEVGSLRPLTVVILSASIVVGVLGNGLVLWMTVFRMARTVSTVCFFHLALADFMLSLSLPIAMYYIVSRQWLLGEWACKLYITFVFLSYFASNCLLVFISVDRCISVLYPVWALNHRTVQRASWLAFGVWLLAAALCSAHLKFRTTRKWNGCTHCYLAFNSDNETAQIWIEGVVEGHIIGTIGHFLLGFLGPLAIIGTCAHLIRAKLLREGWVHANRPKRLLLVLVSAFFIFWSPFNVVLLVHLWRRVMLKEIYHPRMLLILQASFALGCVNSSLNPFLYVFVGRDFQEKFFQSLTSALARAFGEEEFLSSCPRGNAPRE
Assay: qHTS for Agonists of Human Resolvin D1 Receptor DRV1; note: 0% is about no effect
Details: CHO-K1 GPR32 beta-arrestin PathHunter luminescence, 90 min; at 76.9 µM; hits give high values; zero percent set by DMSO-only wells
Method in brief: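 GPR32 activation in stably transfected CHO-K1 cells, detected as beta-arrestin recruitment by enzyme-fragment complementation. Compound exposure: 90 min, 37 °C.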

activation, inactive:
CC1(C)CC(=O)c2cc(-c3nc(-c4ccc(Br)cc4)cs3)c(=O)n(-c3ccccc3)c2C1 -9.41%, O=C(c1cnc(N2CCOCC2)c2ccccc12)N1CCN(c2ccc(F)cc2)CC1 -10.2%, Cc1c(-c2nc(-c3ccc4c(c3)[nH]c(=O)n4C)no2)cccc1[N+](=O)[O-] -0.814%, O=C(CSc1nnc(-c2cccs2)o1)Nc1cccc(C(F)(F)F)c1 33.8%, Cc1cccc(N2C(=O)CSC23C(=O)N(CC(=O)NCCc2ccccc2)c2ccccc23)c1 (stereo not given) -19%, O=C1c2ccccc2-c2onc3c(Br)cc(NC4CCCCC4)c1c23 -7.21%, CN1C(C(=O)Nc2ccccn2)=C(O)c2ccccc2S1(=O)=O -39.1% and -5%, COc1c(C)c2c(c(O)c1C/C=C(\C)CCC(=O)OCCN1CCOCC1)C(=O)OC2 4.12%, COCCNC(=O)CSc1nc2cc3c(cc2c(=O)n1CCCCCC(=O)NCCc1ccc(OC)c(OC)c1)OCO3 -16.3%, COc1ccc(-c2cc(C(F)(F)F)n3nc(-c4ccc(Cl)cc4)cc3n2)cc1OC -1.66%, Cc1c(CC(=O)N2CCCCC2)c(=O)oc2c(C)c(O)ccc12 -0.657%, COCCOC(=O)C1=C(C)NC(C)=C(C(=O)OC(C)C)C1c1cccc([N+](=O)[O-])c1 (stereo not given) 7.26% and -28.5%, Cc1cc2c(cc1S(=O)(=O)CCC(=O)NCc1ccccc1)OCC(=O)N2 -1.23%, O=C(Cc1ccccc1)NC1CC(=O)N(c2ccc3c(c2)OCCO3)C1 (stereo not given) 4.55%, NCCS -7.34% and -14.5%, O=C(OCc1ccccc1F)c1ccc(-c2nnn(Cc3ccccc3)n2)cc1 -6.27%, CCN(CC)c1ccc(NC(=O)C(NS(=O)(=O)c2cccs2)C(C)C)c(C)c1 (stereo not given) -19.3%, CCn1nc(-c2ccccc2)c(-c2ccccc2)c(C(=O)Nc2ccccc2C(N)=O)c1=O -8.13%, CN(C(=O)c1cnc(N2CCOCC2)c2ccccc12)c1ccccc1F -8.95%, COc1ccc(-n2nnnc2C2CCN(S(=O)(=O)c3cccc(Cl)c3C)CC2)cc1 -11.8%, CCCOc1ccc2c(c1)CC[C@@H]1[C@@H]2CC[C@]2(C)C(OC)CC[C@@H]12 (stereo not given in full) 44.9%, COC(=O)CCc1ccc(OCC(O)CNC(C)C)cc1 (stereo not given) -5.32%, COc1ccccc1Cn1c(CNS(=O)(=O)c2ccc(Cl)s2)nc2cccnc21 -40.7%, CCOc1ccccc1CNS(=O)(=O)c1cnc(N)nc1 -6.38%, CCC(=O)N1CCc2cc(Br)cc(S(=O)(=O)N3CCCC(C(=O)Nc4ccc(CC)cc4)C3)c21 (stereo not given) 21.8%, CCOC(=O)c1cccc(NC(=O)Cc2ccc(NC(=O)N3CCCCc4ccccc43)cc2)c1 3.67%, COc1ccc(-n2c(CCC(=O)O)ccc2-c2ccccc2)cc1 -27.6%, CC(=O)c1cccc(NC(=O)Cn2cnc3c2c(=O)n(C)c(=O)n3C)c1 -9.87%, CCOC(=O)c1c(C)[nH]c(C)c1S(=O)(=O)N1CCCC(C(=O)N2CCN(c3ccc(Cl)cc3)CC2)C1 (stereo not given) -9.92%, Cc1ccc(C)c(NC(=O)CCn2cnnn2)c1 6.92%, O=C1Nc2c(c(=O)[nH]c(=O)n2-c2ccc(Cl)cc2)C1(NS(=O)(=O)c1ccccc1)C(F)(F)F (stereo not given) 4.05%, CCOC(=O)c1ccc(N2CCN(c3cccc(Cl)c3)CC2)c(NC(=O)Nc2ccc(Cl)cc2)c1 -8.81%, CCOC(=O)c1[nH]c(C)c(CCC(=O)N2CCN(c3cc(Cl)ccc3C)CC2)c1C -4.69%, Cc1nnc(N2CCN(c3ccccc3)CC2)c2c1nnn2Cc1ccc(F)cc1 -7.93%, O=C(Nc1ccccc1C(=O)OCc1cc(=O)n2c3c(sc2n1)CCCC3)c1ccc(Cl)cc1 -15.2%, O=C(Nc1ccc(F)cc1F)c1ccc(-c2ccccc2)s1 28.2%, CCCCOC(=O)c1ccc(NC(=O)c2ccc3c(c2)CCN3S(=O)(=O)c2ccccc2)cc1 -13.7%, Nc1c(C(=O)c2ccc3c(c2)OCO3)sc(Nc2ccccc2F)c1S(=O)(=O)c1ccccc1 -12.7%, COc1ccc(C)cc1N(CC(=O)N1CCC(C)CC1)S(=O)(=O)c1ccc(C)cc1 -1.34%, Cc1ccc2nc(CSc3nnc(NC(=O)COc4ccccc4F)s3)cc(=O)n2c1 12.8%, Cn1c(=O)c2c(-c3ccccc3Br)n(C(C)(C)C)cc2n(C)c1=O 26.7%, O=C(CCCn1c(=O)c2sccc2n(Cc2c(F)cccc2Cl)c1=O)NCc1ccccc1 -0.0539%, Cc1cnc2c(c1SCC(=O)N(C)c1ccccc1)c(=O)n(C)c(=O)n2C -7.42%, CCCC(=O)Nc1ccc2nn(-c3ccc(CC)cc3)nc2c1 7.04%, CCOC(=O)CSc1nc2sc3c(c2c(=O)n1CC)CCCC3 18.2%, COc1ccc(C2CC(=O)c3cc(-c4nc(-c5cccc([N+](=O)[O-])c5)cs4)c(=O)n(-c4cc(C)cc(C)c4)c3C2)cc1 (stereo not given) -3.01%, CCOc1cc2sc(N3CCC(C(=O)Nc4ccccc4Cl)CC3)nc2cc1Br 5.16%, Cc1ccc(CN2CCC(CNC(=O)c3cc4ccc5cccnc5c4[nH]3)CC2)cc1 1.03%, Cc1cc(S(=O)(=O)C(CNC(=O)COc2ccccc2)c2cccs2)ccc1F (stereo not given) -10.8%, Cc1ccc(-c2nn(CC(=O)NC3CCCC3)c3c2cnc2ccc(F)cc23)cc1C -19%, O=C(Nc1ccc2nc(SCc3ccccc3)sc2c1)c1cccc(F)c1 6.03%, COc1ccc(NC(=O)CCN2CCN(CCO)CC2)c(OC)c1 7.89%, COc1ccc(Oc2nc3c(c(=O)n(C)c(=O)n3C)n2Cc2ccccc2Cl)cc1 14.7%, COc1ccccc1Cn1cc(C(=O)c2ccc(Cl)cc2)c(=O)c2cc3c(cc21)OCCO3 16.8%, COc1ccc(OCCSc2nc(C)c(Cc3ccccc3)c(=O)[nH]2)cc1 -17.7%, CCSc1oc(-c2ccc(F)cc2)nc1S(=O)(=O)c1ccc(C)cc1 -22.4%, Cc1cc(OCC(=O)Nc2cc(-c3nc4ccccc4[nH]3)ccc2C)ccc1Cl 18.3%, CC(C(=O)Nc1ccc(F)c(Cl)c1)N1Cc2ccccc2C1=O (stereo not given) -4.12%, COc1ccc(-c2noc(N3CCN(c4cccc(Cl)c4)CC3)n2)cc1OC 1.18%, CCc1sc(Nc2ccc(Cl)cc2)nc1-c1cc2cccc(OC)c2oc1=O -32.9%, CN1CCN(C(=O)c2ccc3c(c2)N(Cc2c(F)cccc2Cl)C(=O)c2ccccc2S3)CC1 20.9%, COc1ccccc1CNC(=O)COc1cc(=O)n(C)c2ccccc12 4.69%, CCOc1cc(C(=O)Nc2nnc3n2CCS3)cc(OCC)c1OCC 3.54%, CCOc1ccc(C(=O)CSc2nnc3cc(C)c4ccccc4n23)cc1 -6.63%, Cc1ccccc1C(=O)Nc1nnc(SCc2cc(=O)n3ccccc3n2)s1 2.14%, CC(=O)c1cccc(S(=O)(=O)N2CCN(c3ccccc3F)CC2)c1 -17.7%, CC(C)(C)c1ccc(C(=O)NCC(c2cccs2)S(=O)(=O)c2ccc(F)cc2)cc1 (stereo not given) -5.12%, Cc1ccc(N(CC(=O)NCC(C)c2ccccc2)S(=O)(=O)N(C)C)cc1 (stereo not given) -8.27%, CCCCC(CC)CNC(=O)c1ccc2c(=O)n(CCOC)c(=O)[nH]c2c1 (stereo not given) 6.66%, Cc1ccccc1-c1nnc(CN2CCN(c3cccc(C)c3C)CC2)o1 -20.1%, Brc1ccc(-c2nnc3sc(CN4CCCCC4)cn23)cc1 1.37%, Cc1ccc(NC(=O)CSc2nnc(C)n3c2cc2sccc23)c(C)c1 -8.53%, CCOc1ccccc1NC(=O)CSc1nnc(N)s1 -1.38%, CCCN1C(=O)c2[nH]nc(-c3ccccc3O)c2C1c1cccc(OCc2ccccc2)c1 (stereo not given) 26.6%, COc1cccc(NC(=O)CSc2nc3c([nH]c4ccccc43)c(=O)n2-c2ccccc2)c1 -41.2%, Cc1ccc(CSc2ccc(-c3cccs3)nn2)cc1 -17.3%, O=C(Cn1ncc2c3ccccc3n(Cc3ccccc3F)c2c1=O)NC1CCCCCC1 -3.59%, O=C(NCc1ccccc1Cl)c1cc2c(s1)-c1ccccc1SC2 -20.8%, CC(C)(C)NC(=O)c1cnn(-c2ccccc2)c1C1CCN(C(=O)OC(C)(C)C)CC1 0.329%, COCCNC(=O)C(=O)NCC(c1cccnc1)N1CCN(c2ccccc2OC)CC1 (stereo not given) -8.85%, CCC(=O)Nc1ccccc1-c1nc2ccccc2n(CC(=O)c2ccc(C)c(C)c2)c1=O -12.2%, COc1cc(C(=O)NCC(c2cccnc2)N2CCc3ccccc3C2)cc(OC)c1OC (stereo not given) -4.77%, O=S(=O)(Nc1cccc(-c2ccc(N3CCCCCC3)nn2)c1)c1ccccc1F -6.64%, Cc1oc2ncn(C)c(=O)c2c1C(=O)Nc1ccccn1 -21.5%, O=C(CN1C(=O)COc2ccc(S(=O)(=O)N3CCOCC3)cc21)N1CCN(c2cccc(C(F)(F)F)c2)CC1 2.02%
